Measurements taken from PubChem BioAssay AID485364 (National Center for Advancing Translational Sciences (NCATS), 2010).
Hit rate of the full screen: of about 360,000 compounds, about 11,000 (3.1%) were called active. Inconclusive means that the source gave no clear call. Such entries were picked first, then a sample of the others. Calls come from the whole dose curve; as a rule, active = well fitted inhibition curve with a large enough effect; inconclusive = small, poorly fitted or top-dose-only effect; inactive = no such curve, though single readings can be large or run the other way. No potency is given beside an inconclusive call; the fits are too rough.

Biological target: Schistosoma mansoni thioredoxin glutathione reductase (TGR) (UniProt Q962Y6)
Assay: qHTS Assay for the Inhibitors of Schistosoma Mansoni Peroxiredoxins; note: nearly all actives have a fitted effect of over 60% in size
Conditions: purified TGR, DTNB reduction, TNB absorbance 405 nm; series mostly up to 114 µM
Summary of the method: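 Kinetic colorimetric format: TGR-catalysed, NADPH-driven DTNB reduction monitored via TNB absorbance. Enzyme dispensed at 20 nM; compound exposure 15 min at room temperature before reaction start.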
Potency is the fitted concentration of half-maximal effect; tags give direction and shape of the fitted curve.

Compound	Potency
CCC(=O)NC(=S)NNC(=O)c1ccccc1[N+](=O)[O-]	inconclusive [inhibitor, single point]
Cn1c(CCNC(=O)c2ccco2)nc2cc(NC(=O)c3ccco3)ccc21	inconclusive [inhibitor, partial curve]
COc1ccc2c(c1)c1c(c(=O)n(-c3cccc(C)c3)c(=O)n1CC(=O)NCc1ccc(C)cc1)n2C	inactive
CC(C)(C)c1ccc(C(=O)NC(Cc2c[nH]c3ccccc23)C(=O)OCC(=O)c2ccc(Br)cc2)cc1 (centres undefined)	inactive
CN(CCOC(=O)c1cccc(F)c1)Cc1ccccc1	inconclusive [inhibitor, single point]
COc1cc(C2C3=C(CC(C)(C)CC3=O)Nc3c2c(=O)[nH]c(=O)n3Cc2ccccc2)ccc1O (centres undefined)	active: 50.1 µM
Cc1cc(C)c2cc(C#N)c(SCC(=O)NCc3ccco3)nc2c1	inconclusive [inhibitor, full curve]
CCC1Sc2ccc(S(=O)(=O)CCC(=O)NCc3ccco3)cc2NC1=O (centres undefined)	active: 31.6 µM
Cc1ccc(N2C(=O)c3ccccc3C2C(=O)c2cc(C)ccc2O)cc1 (centres undefined)	inconclusive [inhibitor, partial curve]
CN(C)S(=O)(=O)c1ccc(NC(=S)NC(=O)c2cccs2)cc1	inconclusive [inhibitor, full curve]
COc1ccc(Cl)cc1NC(=S)NCc1ccco1	inconclusive [inhibitor, partial curve]
c1ccc(-n2ncc3c(NCCN4CCCCC4)ncnc32)cc1	active: 50.1 µM
CCC(=O)NC(c1ccco1)c1cc(Cl)c2cccnc2c1OC (centres undefined)	inconclusive [inhibitor, partial curve]
CCN(CC)c1ccc(/C=N/NC(=O)CNC(=O)/C=C/c2ccco2)cc1	inconclusive [inhibitor, partial curve]
NC(=O)/C(=N\OC(=O)c1ccco1)c1nc(-c2ccc(Br)cc2)cs1	inconclusive [inhibitor, full curve]
CC(=O)n1cc(N(C(=O)CCl)c2ccc(Cl)cc2)c2ccccc21	active: 0.316 µM
CCOC(=O)N1CC=C2C(C#N)=C(N)C(C#N)(C#N)[C@H](c3ccsc3)[C@H]2C1	inconclusive [inhibitor, partial curve]
CC(=O)c1ccc(N2CCN(CC3CCCCC3)CC2)cc1	inconclusive [inhibitor, partial curve]
Cc1ccc(S(=O)(=O)CCC(=O)N2CCN(c3nc4c(C)c(C)ccc4s3)CC2)cc1	inconclusive [inhibitor, partial curve]
CCN1CCN(C(c2ccc(F)cc2)c2sc3nc(-c4ccco4)nn3c2O)CC1 (centres undefined)	inactive
COc1cc(C(=O)Nc2ccc(Cl)c([N+](=O)[O-])c2)cc(OC)c1OC	inactive
Cc1ccc(/C=C/C(=O)Nc2cccc3cccnc23)o1	inconclusive [inhibitor, partial curve]
CCc1ccccc1N1C(=O)CC(=O)NC1=O	inconclusive [inhibitor, full curve]

Compound	Potency
CC1(C)CC(=O)C(C(=O)/C=C/c2ccco2)C(=O)C1	inconclusive [inhibitor, partial curve]
COc1ccc2o/c(=N\O)c(C(=O)Nc3ccccc3OC)cc2c1	inactive
O=C(NCCc1ccccc1)C1CCN(C2CCN(Cc3ccco3)CC2)CC1	inconclusive [inhibitor, partial curve]
Cc1ccc(C(=O)NC(N2CCCC2)C(Cl)(Cl)Cl)cc1 (centres undefined)	active: 35.5 µM
O=C(Cn1cc(/C=N/O)c2ccccc21)N1CCOCC1	inconclusive [inhibitor, single point]
Cc1cccc2c(N)c3c(nc12)N(C)CC3	inactive
COc1cc(/C=C2/C(=O)NC(=O)N(c3ccc(C)cc3)C2=O)cc(OC)c1OC	inconclusive [inhibitor, full curve]
COc1cc(C(=O)OCC(=O)NCc2ccc(F)cc2)cc(NC(=O)c2cccs2)c1OC	inactive
Cc1ccc(S(=O)(=O)N(C)Cc2ccc(C(=O)N/N=C3\CC(=O)CC(C)(C)C3)cc2)cc1	inactive
O=C(Cn1nc(-c2ccccc2)c2ccccc2c1=O)NCC1CCCO1 (centres undefined)	inconclusive [inhibitor, single point]
COC(=O)c1ccc(C2C(C(=O)c3cc4ccccc4o3)=C(O)C(=O)N2c2cc(C)on2)cc1 (centres undefined)	inactive
O=c1oc2c3c4c(cc2c(C(F)(F)F)c1CCN1CCOCC1)CCCN4CCC3	inconclusive [inhibitor, partial curve]
COc1ccccc1C1C(C(=O)c2ccc(C)o2)=C(O)C(=O)N1c1cc(C)on1 (centres undefined)	inconclusive [inhibitor, partial curve]
CS(=O)(=O)N(Cc1ccc(Cl)cc1)c1ccc(C(=O)N2CCN(c3ccccc3)CC2)cc1	inactive
O=C(Cc1cnn(-c2ccccc2)c1)c1ccc(O)c(O)c1O	inconclusive [inhibitor, partial curve]
COc1ccc2[nH]c3c(=O)n(Cc4ccco4)cnc3c2c1	inconclusive [inhibitor, full curve, poor fit]
CCOC(=O)C1CCCN(C(=O)/C(=C/c2ccco2)NC(=O)c2ccccc2)C1 (centres undefined)	inconclusive [inhibitor, partial curve]
Cc1nc(NCCc2ccc(F)cc2)c(C#N)c(C)c1[N+](=O)[O-]	inconclusive [inhibitor, partial curve]
Cn1nc(C(=O)N2CCN(c3ccc(F)cc3)CC2)c2c1-c1ccccc1SC2	inconclusive [inhibitor, partial curve]
Cc1cc(C(=O)N2CCN(S(=O)(=O)c3ccccc3F)CC2)c(C)o1	inconclusive [inhibitor, partial curve]
O=C1/C(=C\c2cc(Cl)c(O)c(Cl)c2)SC(=S)N1Cc1ccccc1	inconclusive [inhibitor, partial curve]
COc1ccc(OC)c(S(=O)(=O)n2cccn2)c1	inconclusive [inhibitor, partial curve]
Cc1occc1-c1nnc(SCC(=O)Nc2nccs2)n1Cc1ccco1	inconclusive [inhibitor, partial curve]

Compound	Potency
CCOC(=O)c1ccc(NC(=O)Cn2ncc(Cl)c(Cl)c2=O)cc1	active: 17.8 µM
O=C(O)CC1S/C(=N/N=C/c2ccc(-c3ccc(Cl)cc3[N+](=O)[O-])o2)NC1=O (centres undefined)	inconclusive [inhibitor, partial curve, poor fit]
CC1(C)CC(=O)C2=C(C1)Nc1ccccc1NC2c1ccc(F)cc1 (centres undefined)	inconclusive [inhibitor, single point]
CC(=O)N1CCc2cc(S(=O)(=O)CCC(=O)N3CCN(C(=O)c4ccco4)CC3)ccc21	inconclusive [inhibitor, partial curve]
COc1ccc(/C=N/NC(=O)c2ccc(NC(=O)c3cccc([N+](=O)[O-])c3)cc2)c(C(=O)O)c1OC	inactive
COCCn1c(C)cc(O)c(C(c2ccc(F)cc2)N2CCN(c3ccccc3)CC2)c1=O (centres undefined)	active: 3.16 µM
CCc1nnc(NS(=O)(=O)c2ccc(NC(=O)Nc3ccc(OC)cc3)cc2)s1	inactive
Cc1ccc(C(=O)N(C)Cc2ccc(N3CCOCC3)cc2)cc1S(=O)(=O)NCc1ccccc1	inconclusive [inhibitor, partial curve]
O=C(N/N=C\c1cccs1)c1ccccc1-n1cccc1	inconclusive [inhibitor, single point]
CCOC(=O)CSc1cc(-c2ccccc2)nc2ncnn12	inconclusive [inhibitor, partial curve]
OC(CNCc1ccccc1F)COc1cccc2ccccc12 (centres undefined)	inactive
COc1cc(C(=O)Nc2c(C(=O)O)[nH]c3ccccc23)cc(OC)c1OC	inactive
COc1ccc(C(=O)N2CCN(c3cccc(C)c3C)CC2)cc1S(=O)(=O)NC1CC1	inconclusive [inhibitor, partial curve]
CC1CC(C)(C)NC(C)c2ccccc21 (centres undefined)	inconclusive [inhibitor, single point]
CC(C)NC(=O)C1(O)c2ccccc2NC(=O)N1c1ccc(Cl)c(Cl)c1 (centres undefined)	inactive
Cc1oc(/N=C/c2ccc(O)cc2O)c(C#N)c1C	active: 50.1 µM
Cc1c(CN2CCN(c3cccc(C(F)(F)F)c3)CC2)c(=O)n(-c2ccccc2)n1C	inconclusive [inhibitor, partial curve, poor fit]
Cc1ccc(S(=O)(=O)Nc2nc(C)cc(NCCN)n2)cc1	inconclusive [inhibitor, single point]
COc1ccc(C2=NN(C(=O)CN3CCCC3)C(c3ccc(OC)cc3)C2)cc1 (centres undefined)	inactive
COc1ccc(C(=O)COC(=O)CNC(=O)C2CCCCC2)c(OC)c1	inconclusive [inhibitor, full curve]
COc1ccc(CC(=O)N(Cc2cc3cc(OC)ccc3[nH]c2=O)C(C)C)cc1	inconclusive [inhibitor, single point]
Cc1oc(=O)c(NC(=O)c2ccccc2)cc1C(N)=O	inactive
Cc1ccc(NC(=O)CN(C)C(=O)Cn2ncc(Cl)c(Cl)c2=O)cc1	inconclusive [inhibitor, partial curve]
